The whole screen tested about 43,000 compounds, of which about 200 (0.47%) were called active. Not shown: some 12% with an inconclusive outcome. Calls follow the shape of the dose curve; as a rule, active = well fitted cell-killing curve with a large enough effect; inconclusive = small, poorly fitted or top-dose-only effect, or effect the other way; inactive = flat fitted curve, though single readings scatter. Some of the results follow.
Test: Cell viability qHTS assay in S16 Pmp22-F2sN cells; also: nearly all actives have a fitted effect of over 65% in size
Conditions: S16 Pmp22-F2sN Schwann cells (luciferase reporters placed in the Pmp22 gene) viability, CellTiter-Glo, 24 h; series mostly up to 57.5 µM; activity change, negative = cytotoxicity: at the top concentration
Procedure, shortened: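 S16 Schwann cells carrying the Pmp22-F2sN reporter, seeded in 1536-well format, were exposed to library compounds for 24 h at 37C. Viability was read as CellTiter-Glo luminescence after 15 min at room temperature.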
% is scaled to controls: 0 for no effect and ±100 for the full control effect.

Structure (SMILES) | activity change, negative = cytotoxicity
Cc1cccc2c1-c1sc(C(=O)NCc3ccccc3Cl)cc1CO2 | inactive: -1.61%
O=c1ccc2cc(S(=O)(=O)N3CCCC3)ccc2[nH]1 | inactive: 3.23%
COc1ccccc1CNC(=O)c1c2c(nc3ccccc13)C(=O)N(C1CCCCC1)C2 | inactive: -1.12%
CSc1cccc(NC(=O)CN(C)S(=O)(=O)c2ccc3c(c2)n(C)c(=O)c(=O)n3C)c1 | inactive: -3.78%
Cc1nn2c(=O)cc(COC(=O)c3ccc(C(C)(C)C)cc3)nc2s1 | inactive: -7.53%
Cc1ccc(NC(=O)NCCc2c(C)nn(C)c2C)c(Cl)c1 | inactive: 4.5%
COc1cc(C(=O)NCc2ccc3c(c2)CCN3C(=O)c2ccncc2)cc(OC)c1OC | inactive: -1.17%
COc1cccc(/C=C/c2nc(C#N)c(N(C)Cc3ccccc3)o2)c1 | inactive: 7.43%
COc1ccc(-c2noc(CSCC(=O)Nc3ccc(C)cc3Br)n2)cc1OC | inactive: -2.33%
COCCCNC(=O)CN1C(=O)c2c(c3ccccc3n2C)C1c1ccc(OC)cc1 (stereo not given) | inactive: -5.21%
CCCCSc1ncnc2c1sc1nc(N3CCOCC3)c3c(c12)CCCC3 | inactive: 6.62%
Fc1ccc(CNc2nc3c(-c4ccc(F)cc4)nnn3c3ccccc23)cc1 | inactive: 4.96%
CC1=C(C(=O)Nc2ccc(C)cc2)C(c2ccccc2Cl)n2nnnc2N1 (stereo not given) | inactive: 15.8%
CCOc1ccc(CNC(=O)COc2cc(=O)n(C)c3ccccc23)cc1 | inactive: 8.76%
CCOc1ccc(C(=O)NCc2nc(-c3ccc(Cl)cc3)no2)cc1OCC | inactive: -25.2%
Cc1cccc(C)c1-n1ncc(C(=O)NCCN2CCN(C)CC2)c1C1CCN(C(=O)OC(C)(C)C)CC1 | inactive: 21%
CCN(Cc1ccccc1)S(=O)(=O)c1ccc(F)c(C(=O)Nc2cc(C)ccc2OC)c1 | inactive: 2.35%
Cc1cccc(NC(=O)C2CCN(S(=O)(=O)c3c(C)noc3/C=C/c3ccco3)CC2)c1 | inactive: 2.5%
CCOc1ccc(NC(=O)CCNS(=O)(=O)c2cccs2)cc1 | inactive: 11.3%
Cc1ccc(C)c(S(=O)(=O)n2nc(C)c(S(=O)(=O)N3CCCCCC3)c2C)c1 | inactive: 5.75%

Structure (SMILES) | activity change, negative = cytotoxicity
COc1ccc(NC(=O)CCCN2C(=O)CCn3nc(-c4cn(C)c5ccccc45)cc32)cc1 | inactive: -23.7%
Cc1cc(Nc2ccccc2O)nc(C)n1 | inactive: 2.18%
COc1ccc(CNC(=O)C2CCN(C(=O)N3CCOc4ccc(Cl)cc43)CC2)cc1 | inactive: -25%
Cc1ccc2c(=O)c(C(=O)c3ccc(Cl)cc3)cn(CC(=O)Nc3ccc4c(c3)OCCO4)c2n1 | inactive: -20%
Cc1cccc(C(=O)NCc2nc3ccccc3n2Cc2ccccc2Cl)c1 | inactive: -3.45%
CCOc1ccccc1CNC(=O)c1oc2c(c1C)-c1nn(Cc3cccc(Cl)c3)cc1CC2 | inactive: -29.5%
Cc1ccc(NC(=O)C2CCCN2S(=O)(=O)c2cccc3cccnc23)c(C)c1 (stereo not given) | inactive: 0.148%
O=C(Nc1cccc(OCc2cc(=O)n3ccccc3n2)c1)Nc1cccc(C(F)(F)F)c1 | inactive: 6.19%
O=C(Cc1ccc(NC(=O)N2CCSc3ncccc32)cc1)NCc1cccc(Cl)c1 | inactive: -4.58%
CCOc1ccc(CNC(=O)C2=Cc3cccc(OC)c3OC2)cc1 | inactive: 20.6%
COc1ccc(CCNC(=O)C2c3ccccc3C(=O)N2Cc2ccccc2)cc1OC (stereo not given) | inactive: -1.1%
COc1cccc(NC(=O)Cn2c(=O)n(Cc3ccc(C(=O)NCc4ccc(C)cc4)cc3)c(=O)c3ccccc32)c1 | inactive: 17%
CCOC(=O)c1c(C)n(-c2ccccc2)c2ccc(OC(=O)c3c(F)cccc3F)cc12 | inactive: 10.1%
CCOc1ccc(Cn2c(CNS(=O)(=O)c3ccc(C(C)(C)C)cc3)nc3cccnc32)cc1 | inactive: 2.93%
N#Cc1ccc(NC(=O)C2Cc3ccccc3CN2S(=O)(=O)c2ccc(F)cc2)cc1 (stereo not given) | inactive: -7.95%
O=C(COc1ccc(F)cc1)Nc1ccc2nc(SCCOc3ccccc3)sc2c1 | inactive: 17.7%
COc1ccc(OC)c(CC2C(=O)Nc3ccc(Br)cc32)c1 (stereo not given) | inactive: -19.1%
COC(=O)c1cc2sccc2n1Cc1ccc(F)cc1Cl | inactive: 4.56%
CCOC(=O)c1c(C)oc2ccc(N(C(C)=O)S(=O)(=O)c3c(C)cc(C)cc3C)cc12 | inactive: -0.542%
Cc1cc(F)ccc1S(=O)(=O)Nc1cc2c(C(=O)O)c(C)oc2c2ccccc12 | inactive: 1.29%

Structure (SMILES) | activity change, negative = cytotoxicity
Cc1cc(N2CCN(c3cc(Cl)ccc3C)CC2)n2nc(-c3ccccc3)nc2n1 | inactive: -13.8%
CCN(CC)CCNC(=O)c1cn(CC)c2ccc(S(=O)(=O)N3CCc4ccccc4C3)cc2c1=O | inactive: -0.371%
CCOC(=O)c1cc(-c2ccc(C)cc2)n(CCC(=O)NCCc2ccc(C)cc2)c1C | inactive: 23.8%
CCC(=O)N1CCc2cc(Br)cc(S(=O)(=O)CCC(=O)Nc3ccc(Cl)cc3)c21 | inactive: 0.0598%
Cc1cccc(C)c1NC(=O)CCC(=O)N1Cc2ccccc2Oc2ncccc21 | inactive: 1.04%
COc1cc(-c2cc3n(C)c(C)c(CCC(=O)NC4CCCCC4)c(=O)n3n2)cc(OC)c1OC | inactive: 16.3%
CCC(=O)N1CCc2cc(Br)cc(S(=O)(=O)N3CCN(c4cc(C)ccc4C)CC3)c21 | inactive: -1.28%
O=C(NC1CCN(Cc2ccccc2)CC1)c1ccc(Cn2c(=O)c3ccccc3n(Cc3cccc(F)c3)c2=O)cc1 | inactive: 10.5%
COCCn1c(=N)c(C(=O)NC2CCCC2)cc2c(=O)n3cc(C)ccc3nc21 | inactive: 16.5%
O=C(Nc1ccccc1C(=O)OCc1cc(=O)n2ccsc2n1)c1ccccc1Cl | inactive: 0.483%
CCOC(=O)CCNC(=O)N1CCN(S(=O)(=O)c2ccc3c(ccn3C)c2)CC1 | inactive: 0.0973%
Cc1ccc(CNC(=O)Cn2c(-c3cccs3)cc3cc(Cl)ccc32)cc1 | inactive: -28.9%
Cc1ccc(CNC(=O)c2ccc3c(c2)NC(=O)C(CS(=O)(=O)Cc2cccc(F)c2)N3)cc1 (stereo not given) | inactive: -29.6%
Cc1ccc(N2C(=O)C(CC(=O)Nc3ccc(F)cc3)N(Cc3ccc4c(c3)OCO4)C2=O)cc1 (stereo not given) | inactive: 6.01%
CC(=O)c1ccc(NC(=O)c2cc3c(=O)oc4ccc(C)cc4c3s2)cc1 | inactive: -14.6%
Cc1ccc(Sc2ccc(N3CCC(C(=O)Nc4ccc(Cl)cc4)CC3)nn2)cc1 | inactive: 14.8%
CCc1ccc(C(=O)c2cn(CC(=O)NCc3ccc(C)cc3)c3nc(C)ccc3c2=O)cc1 | inactive: 5.01%
Cc1cccc(N2C(=O)C(CC(=O)Nc3cccc(F)c3)N(CCc3ccncc3)C2=O)c1 (stereo not given) | inactive: 1.88%
Cc1ccc(C(=O)Nc2ccc(S(=O)(=O)N(Cc3ccccc3)c3ccccc3)cc2)cc1 | inactive: 5%
COc1ccc(NC(=O)C2=CC(c3ccc4c(c3)OCO4)=NS(=O)(=O)N2C)cc1OC | inactive: 1.79%

From PubChem BioAssay AID1508642 (National Center for Advancing Translational Sciences (NCATS), 2021)
